Measured values reported in US7826982B2, “Method of identifying inhibitors using a 3-D structure of RAC-1 GTPASE” (Children's Hospital Medical Center, priority 2005, dated 2010).

Tests used:
[1] = tested on: L61Rac1 or Tiam1 transfected NIH 3T3 cells; assay: Foci formation and soft-agar growth of transfected NIH 3T3 cells; type: cell-based; details: 50 μM (foci, 14 days) or 100 μM (soft agar, 14 days)
Description: (§1) The cells were split in triplicate in 6-well plates at a density of 5×10^4 cells per well. The GTP-bound L61Rac1 and endogenous Rac1 of the L61Rac1-expressing cells were probed by GST-PAK1 pull-down after 12 hour treatment with increasing concentrations of NSC23766. […] In FIG. 5C, GST, L61Rac1, or Tiam1 transfected cells were treated with 50 μM NSC23766 every two days. The foci numbers of the respective cells were quantified 14 days after transfection. […] The number and the morphology of the colonies were examined under a microscope.

PC-3 cells [2] = assay: Matrigel cell invasion assay; details: 25 μM, 24 hrs
[3] = molecular target: PDZ-RhoGEF-stimulated mantGDP/GTP exchange of RhoA (Homo sapiens, UniProt P61586); assay: In vitro guanine nucleotide exchange assay (mant-GDP), RhoA with PDZ-RhoGEF; type: biochemical; details: 200 μM NSC23766
Description: In vitro guanine nucleotide exchange assay. For these, 200 nM Rac1 loaded with mant-GDP is incubated at 25° C. in an exchange buffer containing 100 mM NaCl, 5 mM MgCl2, 50 mM Tris-HCl (pH 7.6), and 0.5 mM GTP in the absence or presence of 200 nM Trio. The mant-GDP fluorescence changes in the course of the exchange reactions are monitored with an excitation wavelength at 360 nm and the emission wavelength at 440 nm by a Cary Ellipse fluorescence spectrometer (Varian, Inc.).
In FIG. 3. […] In FIG. 3A, NSC23766 inhibited TrioN catalyzed GDP/GTP exchange of Rac1 in a dose dependent manner. 200 nM Rac1 loaded with mant-GDP was incubated at 25° C. in an exchange buffer containing 100 mM NaCl, 5 mM MgCl2, 50 mM Tris-HCl (PH 7.6), and 0.5 mM GTP in the absence (top line) or presence of 100 nM TrioN. Increasing concentrations of NSC23766 were included in the exchange buffer as indicated. In FIG. 3B, NSC23766 had no effect on the Intersectin-stimulated GDP/GTP exchange of Cdc42. 200 nM Cdc42 loaded with mant-GDP was incubated in the exchange buffer in the absence (top line) or presence of 100 nM Intersectin with or without 200 μM NSC23766. In FIG. 3C, the exchange reaction of RhoA catalyzed by PDZ-RhoGEF was carried out similarly in the presence or absence of 200 μM NSC23766.

PC-3 cells [4] = assay: PC-3 proliferation, CellTiter 96 AQueous assay; details: 5% serum, indicated concentrations
PC-3 cells [5] = assay: Anchorage independent growth in soft agar; details: for colony forming activity (anchorage independent growth) of PC-3 cells: different doses
[6] = tested on: GEF expressing NIH 3T3 cells; assay: Cell growth assay, GEF-transfected NIH 3T3; type: cell-based; details: 100 μM; 5% serum
Description: as §1

wild type NIH 3T3 cells = assay: Cell growth assay, wild type NIH 3T3; type: cell-based; details: 100 μM; 5% serum
Description: as §1

[7] = molecular target: T1, RhoA binding to PDZ-RhoGEF (Homo sapiens, UniProt P61586); assay: RhoA - PDZ-RhoGEF affinity precipitation; details: varying concentrations
T1 construct: made in house; host or cells: PDZ-RhoGEF expressed in Cos-7 cells (lysate used)
Description: Trio and Tiam-1 co-precipitate with GST-Rac1, but not GST or GST-Cdc42.
In FIG. 2A, 0.5 μg of (His)6-tagged TrioN was incubated with GST alone or nucleotide-free, GST-fused Cdc42 or Rac1 (2 μg) in the binding buffer containing different concentrations of NSC23766 and 10 μl suspended glutathione-agarose. After an incubation at 4° C. for 30 minutes, the beads associated (His)6-TrioN were detected by anti-His Western blotting. The blots were quantified by densitometry analysis. The results are representative of three measurements. In FIG. 2B, myc-tagged Tiam1 expressed in Cos-7 cell lysates were incubated with (His)6-Rac1 in the presence of increasing concentrations of NSC23766. The association of Rac1 with Tiam1 was examined by anti-His blot after anti-myc immunoprecipitation. In FIG. 2C, the AU-tagged PDZ-RhoGEF was expressed in Cos-7 lysates and incubated with GST or GST-RhoA in the presence of varying concentrations of NSC23766. The RhoA associated PDZ-RhoGEF was probed with anti-AU antibody after affinity precipitation by glutathione agarose beads. In FIG. 2D, (His)6-Rac1 loaded with GTP γ S was incubated with GST-BcrGAP or GST-PAK1 (PBD) in the presence or absence of 200 μM NSC23766 and the interaction with GSTBcrGAP or GST-PAK1 was probed by anti-His blot after affinity precipitation by glutathione agarose beads.

[8] = tested on: L61Rac1 expressing NIH 3T3 cells; assay: Cell growth assay, L61Rac1 expressing NIH 3T3; type: cell-based; details: 100 μM; 5% serum
Description: as §1

T1 sequence (P61586 whole entry): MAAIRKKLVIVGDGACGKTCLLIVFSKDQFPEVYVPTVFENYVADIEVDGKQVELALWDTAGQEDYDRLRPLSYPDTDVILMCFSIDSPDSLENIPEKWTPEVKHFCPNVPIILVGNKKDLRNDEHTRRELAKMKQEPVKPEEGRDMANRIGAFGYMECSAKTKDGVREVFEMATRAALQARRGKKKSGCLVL

CCN(CC)CCCC(C)Nc1nc(C)cc(Nc2ccc3nc(C)cc(N)c3c2)n1 (stereo not drawn) [compound 23766, N6-(2-((4-(diethylamino)-1-methylbutyl)amino)-6-methyl-4-pyrimidinyl)-2-methyl-4,6-quinolinediamine]
Rac GEF stimulated cell growth and transformation [1]: specifically inhibited | PC-3 cell invasion (PC-3 cells [2]): significantly inhibits | PC-3 cell invasion (PC-3 cells [2]; listed as NSC23766): inhibited | effect on PDZ-RhoGEF-stimulated mantGDP/GTP exchange of RhoA [3]: little impact | proliferation of PC-3 cells (PC-3 cells [4]): inhibited by compound 23766 in a dose dependent manner | proliferation of PC-3 cells (PC-3 cells [4]; listed as NSC23766): inhibited | colony-forming activity remaining (PC-3 cells [5]; 25 μM, PC-3 cells): Approximately 10% | colony-forming activity remaining (PC-3 cells [5]; 50 μM, PC-3 cells): ~1% | size of colonies of treated cells versus untreated (PC-3 cells [5]; PC-3 cells): much smaller | colony forming activity (anchorage independent growth) of PC-3 cells (PC-3 cells [5]): efficiently blocks | colony forming activity (anchorage independent growth) of PC-3 cells (PC-3 cells [5]; listed as NSC23766): inhibited | cell growth induced by the Rac specific GEF Trio [6]: capable of inhibiting | cell growth stimulated by the Cdc42-specific GEF Intersectin [6]: not | cell growth stimulated by the Rho-specific GEF Lbc [6]: not | cell growth stimulated by the multiple Rho protein-activating GEF Vav [6]: not | growth of wild type NIH 3T3 cells (wild type NIH 3T3 cells): slow the growth | effect on RhoA binding to PDZ-RhoGEF [7]: does not interfere | growth rate of Rac1L61 expressing cells [8]: no effect
